Assay results from PubChem BioAssay AID1347073 (National Center for Advancing Translational Sciences (NCATS), 2019).
Hit rate of the full screen: of about 45,000 compounds, about 200 (0.44%) were called active. Not shown: some 7% with an inconclusive outcome. The call rests on the fitted dose curve; in most records, active means well fitted activation curve with a large enough effect; inconclusive means small, poorly fitted or top-dose-only effect; inactive means no such curve, though single readings can be large or run the other way. Some of the results follow.

experiment: qHTS of TDP-43 Inhibitors: NCGC Sytravon Library Screen; details: yeast TDP-43 toxicity rescue, BacTiter-Glo growth, 24 h; series mostly up to 46.1 µM; growth rescue (activation): at the top concentration; further: 0% is about no effect; nearly all actives have a fitted effect of over 55% in size
Method in brief: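 TDP-43-expressing yeast, pregrown in raffinose, seeded at OD600 0.02 in galactose medium with compound for 24 hr at 30 deg C. Growth read by BacTiter-Glo luminescence, so rescue of toxicity appears as activation.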

Structure (SMILES) | growth rescue (activation)
COC(=O)c1ccccc1NC(=O)Cc1nc(-c2ccccc2)sc1-c1ccc(C)cc1 | inactive: 6.76%
CC1CC(OC(=O)c2ccccc2C(=O)c2ccc(Cl)cc2)C(=O)O1 (stereo not given) | inactive: 18.1%
CC1=NN(C(=O)CSCc2ccccc2)C(O)(c2ccc(Cl)cc2)C1 (stereo not given) | inactive: 2.92%
CC(C)C(NC(=O)C(C)N1C(=O)c2ccccc2C1=O)c1ccccc1 (stereo not given) | inactive: 6.73%
CN1Cc2c(N3CCOCC3)nc3sc(C#N)c(N)c3c2CC1(C)C | inactive: 1.16%
Cc1cc(=O)oc2cc(OCCCC[n+]3ccccc3)ccc12 | inactive: -3.78%
CC(=O)c1cccc(NC(=O)c2cc(=O)[nH]c3ccc(S(=O)(=O)N4CCOCC4)cc23)c1 | inactive: 9.75%
Cc1ccc(/C=N/NC(=O)CN2CCN(Cc3ccccc3Cl)CC2)o1 | inactive: -4.47%
CN(C)S(=O)(=O)c1ccc(Cl)c(C(=O)Nc2nc3ccccc3[nH]2)c1 | inactive: -0.912%
CCOc1ccc(CN(C)C(=O)CCN2C(=O)c3ccccc3C2=O)cc1OC | inactive: 9%
O=C(Nc1ccc(S(=O)(=O)N2CCCC2)cc1)c1ccc(F)cc1 | inactive: 4.52%
Cc1cc(-c2n[nH]c(=S)n2/N=C/c2sccc2C)n[nH]1 | inactive: 9.17%
O=C(NCc1ccco1)c1ccc(Cl)c(S(=O)(=O)Nc2ccccc2)c1 | inactive: 10.1%
N=C(c1cccc([N+](=O)[O-])c1)N1CCCCC1 | inactive: 0.021%
O=C(O)CC(NCc1ccco1)C(=O)OCCCl (stereo not given) | inactive: -10.1%
Cc1cccc(NC(=O)c2ccc(S(=O)(=O)N3CCCC3)cc2)c1C | inactive: -15.1%
CC(=O)Nc1ccc(S(=O)(=O)N2CCSc3ccccc32)cc1 | inactive: 6.58%
O=C(O)c1cc2nccc(-c3ccc(F)cc3)n2n1 | inactive: -1.65%
CCC(C)NC(=S)N1CCN(C(c2ccccc2)c2ccccc2)CC1 (stereo not given) | inactive: 1.5%
CCOC(=O)C1(CCc2ccccc2)CCN(Cc2ccc(OC)cc2)CC1 | inactive: -16.5%
COc1cccc(-c2cnc(C(O)c3cc(C)c(OC)c(C)c3)[nH]2)c1 (stereo not given) | inactive: -6.03%
COc1ccc(CCNC(=O)Nc2nc(C(N)Cc3ccccc3)cs2)cc1OC (stereo not given) | inactive: 11.1%
CCc1ccc(C2c3[nH]c4ccccc4c3CCN2C(=O)c2ccc(=O)n(C)n2)cc1 (stereo not given) | inactive: 15.5%
COc1ccc2c(c1)-c1nc(/N=C/c3c(O)ccc4ccccc34)sc1CC2 | inactive: 4.21%
CCC(=O)N(Cc1cc(=O)[nH]c2ccccc12)c1ccccc1OC | inactive: -6.58%
N#Cc1nc(Cc2ccccc2)oc1N1CCCC1 | inactive: 29.1%
O=C(CCCC(=O)N(CC(=O)NC1CCCC1)C1CCCC1)Nc1ccccn1 | inactive: 7.18%

Structure (SMILES) | growth rescue (activation)
COc1cccc(CN(C(=O)c2ccco2)C(C(=O)NC2CCCC2)c2cccnc2)c1 (stereo not given) | inactive: 11.2%
CN(Cc1ccco1)C(=O)CN1C(=O)NC2(CCCC2)C1=O | inactive: 13.5%
O=C(O)CCN=CC1=C(O)CC(c2ccccc2)CC1=O (stereo not given) | inactive: -20.1%
CC(=O)Cc1nsc(Nc2ccc3c(c2)OCCO3)n1 | inactive: -5.44%
O=C(/C=C/Nc1ccc(Cc2ccc(N/C=C/C(=O)C(F)(F)F)cc2)cc1)C(F)(F)F | inactive: 19.3%
CC1=NN(C(=O)CSCc2ccccc2)C(O)(c2ccc(F)cc2)C1 (stereo not given) | inactive: -3.55%
COc1cccc(C(=O)Nc2nnc(SCC(=O)NC3CC3)s2)c1 | inactive: -0.498%
Cc1ccc(C(=O)OCC(=O)c2ccc[nH]2)s1 | inactive: 19.8%
O=C(N/N=C/c1ccc(O)cc1O)NC12CC3CC(CC(C3)C1)C2 | inactive: 17.3%
CNc1ccc(S(=O)(=O)NC)cc1[N+](=O)[O-] | inactive: -7.34%
CCCCCc1c(C)[nH]c2nc3ccccc3n2c1=O | inactive: 1.36%
COC(=O)C1=C(C)NC(C)=C(C(=O)OC)C1c1ccc(OC(=O)c2ccco2)cc1 | inactive: 9.08%
COc1cccc(-c2cnc(C(O)c3ccccc3)[nH]2)c1 (stereo not given) | inactive: -1.68%
COc1ccc(NC(=O)CCC(=O)c2cccs2)cc1S(=O)(=O)Nc1ccccc1Cl | inactive: 24%
Cc1ccc(S(=O)(=O)NC(CC(=O)O)c2ccc(F)cc2)cc1 (stereo not given) | inactive: 13.5%
CCOC(=O)C1CCCN(C(=O)c2ccc([N+](=O)[O-])cc2)C1 (stereo not given) | inactive: 8.21%
C=CCSc1nc2sc3c(c2c(=O)n1CC=C)CCc1ccccc1-3 | inactive: -3.23%
CC(C)CNC(=O)CN(c1ccccc1)S(=O)(=O)c1ccccc1[N+](=O)[O-] | inactive: 15.3%
O=[N+]([O-])c1cc(C(F)(F)F)cc([N+](=O)[O-])c1N1CCN(S(=O)(=O)c2ccccc2)CC1 | inactive: 18.2%
Cc1ccc2cc(C#N)c(N3CCCN(C(=S)NCCCN(C)C)CC3)nc2c1 | inactive: 1.9%
O=C(CCS(=O)(=O)c1cccs1)Nc1ccc(C(=O)NC2CCCC2)cc1 | inactive: -5.98%
CCOc1ccc(NC(=O)C2C(C(=O)O)C3(Cl)C(Cl)=C(Cl)C2(Cl)C3(Cl)Cl)cc1 (stereo not given) | inactive: 12.6%
Cc1cc(C(=O)COC(=O)c2nn(C)c(=O)c3ccccc23)c(C)n1C | inactive: -5.62%
COc1cc(NC(=O)c2ccccc2)ccc1NC(=O)c1cc2ccccc2o1 | inactive: -0.433%
NC(=O)C1CCCN(C(=O)CCC(=O)c2cccs2)C1 (stereo not given) | inactive: 21.7%
COc1ccc(CNC(=O)C(c2ccc(C)o2)N(C(=O)c2snc(C(N)=O)c2N)c2ccccc2OC)cc1 (stereo not given) | inactive: 8.82%
Cc1nn(C)c(C(=O)NNC(=O)Nc2cccc(C(F)(F)F)c2)c1Cl | inactive: -0.363%

Structure (SMILES) | growth rescue (activation)
CC(C)(C)c1ccc(CC(=O)N2CCC2(C)C(=O)Nc2ccc3[nH]ncc3c2)cc1 (stereo not given) | inactive: 9.12%
COc1ccc(C(C)=O)cc1CN(c1ccccc1OC)S(=O)(=O)c1cccs1 | inactive: 13.5%
CCn1c(SCC(=O)O)nnc1-c1ccccc1OC | inactive: 10.5%
CCN(C(=O)CSc1nnc(C)n1-c1ccccc1)C1CCS(=O)(=O)C1 (stereo not given) | inactive: -4.67%
COc1ccc(C(NC(=O)C2CCN(CCc3ccccc3)CC2)c2ccccn2)cc1 (stereo not given) | inactive: 1.7%
COc1ccc2cnnc(SCC(=O)Nc3ccc(C(=O)O)cc3)c2c1OC | inactive: 6.9%
CNc1snc(C)c1C(=O)OCC(=O)Nc1ccc(C)cc1F | inactive: 9.72%
C/C=C(\C)CN1CCC(Oc2cccc(C(=O)NCc3ccccn3)c2)CC1 | inactive: -6.44%
O=c1c(-c2ccc3c(c2)OCCO3)coc2cc(OC3OC(CO)C(O)C(O)C3O)ccc12 (stereo not given) | inactive: 15.1%
CCNC(=S)N1CCNC(=O)C1CC(=O)OC (stereo not given) | inactive: -0.596%
COc1ccc(CCNC(=O)COC(=O)COc2ccc(C#N)cc2)cc1 | inactive: 3.55%
Cc1ccccc1N(CC(=O)Nc1ccccc1C(=O)NCc1ccco1)S(=O)(=O)c1ccccc1 | inactive: -16.4%
Cc1cc2c(cc1C)/C(=N/NC(=O)c1ccccn1)CCC2 | inactive: 11.9%
NC(=O)C1CCN(c2ccc([N+](=O)[O-])cc2Cl)CC1 | inactive: 21%
COc1ccc(NC(=O)CC2CCCC2)cc1S(=O)(=O)N1CCCCC1 | inactive: 21%
CC(Sc1nnc(CC(=O)Nc2ccccc2F)n1C)C(=O)Nc1nccs1 (stereo not given) | inactive: 9.38%
COc1cc(C)nc(N2CCCC(C(=O)Nc3cc(Cl)ccc3OC)C2)n1 (stereo not given) | inactive: -7.87%
Cn1c(CCNC(=O)c2ccco2)nc2ccccc21 | inactive: 10.8%
O=C(O)C1=NN(c2ccccc2)C(=O)CC1 | inactive: 5.74%
N#C/C(=C\c1cccc([N+](=O)[O-])c1)c1nnc2n1CCCCC2 | inactive: 3.79%
CCCCNC(=O)C1(C)CCN1C(=O)c1ccncc1 (stereo not given) | inactive: 1.1%
COCCNC(=O)C1CCCN(C(=O)Cc2ccc(F)cc2)CC1 (stereo not given) | inactive: 3.18%
COc1cc(C(=O)NC(=S)NNC(=O)[C@H]2C[C@@H]2c2ccccc2)cc(OC)c1OC | inactive: 8.04%
COc1ccc(-c2cc(C(=O)N(C)Cc3nc4ccccc4c(=O)[nH]3)c3ccccc3n2)cc1OC | inactive: 5.93%
COc1cc(OC)cc(C(=O)NC(=S)Nc2ccc(N3CCCC3)cc2)c1 | inactive: -0.492%
COc1ccc(C2Nc3ccccc3C(=O)N2c2ccccc2)cc1Cn1cc([N+](=O)[O-])cn1 (stereo not given) | inactive: 16.9%
CC1CCCC(C)N1C(=O)COC(=O)c1cc(=O)[nH]c2ccccc12 (stereo not given) | inactive: 4.65%

Structure (SMILES) | growth rescue (activation)
O=C1Nc2ccccc2C1=Nc1ccc(-c2nnc3n2CCCCC3)cc1 | inactive: 0.967%
NC1=NC(=O)/C(=C\c2ccc(O)c([N+](=O)[O-])c2)S1 | inactive: -7.81%
Cc1cccc(N(C(=O)CNC(=O)c2ccco2)C(C(=O)NC2CCCC2)c2cccnc2)c1C (stereo not given) | inactive: 8.72%
CC(=NC(C)C)C1=C(O)CCC1=O | inactive: -9.54%
Cc1cc(C(=O)N/N=C/c2ccc(C)s2)n[nH]1 | inactive: 5.75%
CC1(C(=O)NS(=O)(=O)c2ccc(Cl)cc2)CCN1C(=O)Cc1cccc2ccccc12 (stereo not given) | inactive: -5.46%
CCOc1cc(NC(=S)NCCCOC)c(OCC)cc1NC(=O)c1ccco1 | inactive: 21.3%
O=C(C[n+]1ccc(Cc2ccccc2)cc1)Nc1ccc([N+](=O)[O-])cc1Cl | inactive: 4.4%
Cc1cccc(C(CC(=O)NCc2ccco2)c2ccccc2)c1O (stereo not given) | inactive: -2.06%
C/C(=N\NC(=O)COc1ccc(C(C)(C)C)cc1)c1cc2ccccc2o1 | inactive: 9.42%
Cc1ccc(C(=O)C[n+]2ccc3ccccc3c2)cc1 | inactive: -0.473%
O=C(CC(=O)NCc1ccccc1)NCc1ccccc1 | inactive: -9.71%
CCN1C(=O)/C(=C/c2cn(-c3ccccc3)nc2-c2cccnc2)SC1=S | inactive: -0.876%
COCc1nnc(NC(=O)c2ccc(Cl)cc2[N+](=O)[O-])s1 | inactive: -10.2%
C=CCn1c(=O)c(C(=O)Nc2ncccc2O)c(O)c2ccccc21 | inactive: 6.56%
CCCn1c(SC(C(=O)Nc2cccc(OC)c2)c2ccccc2)nc2ccccc2c1=O (stereo not given) | inactive: 11.9%
O=C(NN1CCCCC1)c1ccc(COc2ccc(Cl)cc2)cc1 | inactive: 4.23%
Cc1ccccc1S(=O)(=O)NC(=NCc1ccc(F)cc1)c1ccccc1 | inactive: 16.5%
CC(C)NC(=O)Nc1nnc([C@H]2C[C@H](O)[C@@H](CO)O2)s1 | inactive: 5.93%
O=C(C1=NN[C@@H]2C(=O)N(c3ccccc3C(F)(F)F)C(=O)[C@H]12)c1ccc2ccccc2n1 | inactive: 10.7%
CCC(C(=O)OCC(=O)Nc1cccc(C(C)=O)c1)c1ccccc1 (stereo not given) | inactive: 21.6%
CC(C)N(C(=O)CN1C(=O)NC(c2ccccc2)(c2ccccc2)C1=O)C(C)C | inactive: 3.13%
COc1cc(/C=C/C(=O)OCC(=O)Nc2ccc(NC(C)=O)cc2)cc(S(=O)(=O)N2CCc3ccccc32)c1OC | inactive: 6.25%
COc1cc(/C=N/NC(=O)c2ccncc2)ccc1Oc1ccc([N+](=O)[O-])cn1 | inactive: 8.44%
